Assay: ADP-ribosyl cyclase activities of anti-hCLL-1-CD38 fusions
Type: biochemical
Settings: versus recombinant human CD38 extracellular domain; NGD+ 100 μM
Description: ADP-Ribosyl Cyclase Activities.
The rate of cyclic guanine dinucleotide phosphate-ribose (cGDPR) generation was monitored by a Synergy H1 plate reader (BioTek, VT, USA) for its signature fluorescence (excitation at 300 nm; emission at 410 nm) for 5 minutes.

B1: DAR2-ARC-IgG: anti-hCLL-1 antibody 1075.7 with CD38 fused to C-termini of heavy chains (antibody)
heavy: DIQLQESGPGLVKPSQSLSLTCSVTGYSITSAYYWNWIRQFPGNKLEWMGYISYDGRNNYNPSLKNRISITRDTSKNQFFLKLNSVTTEDTATYYCAKEGDYDVGNYYAMDYWGQGTSVTVSS[about 600 residues with a human IgG1 Fc skipped]
light: ENVLTQSPAIMSASPGEKVTMTCRASSNVISSYVHWYQQRSGASPKLWIYSTSNLASGVPARFSGSGSGTSYSLTISSVEAEDAATYYCQQYSGYPLTFGAGTKLELKRAAAAPSVFIFPPSDEQLKSGTASVVCLLNNFYPREAKVQWKVDNALQSGNSQESVTEQDSKDSTYSLSSTLTLSKADYEKHKVYACEVTHQGLSSPVTKSFNRGEC
- catalytic activity: significantly higher catalytic activities

B2: anti-hCLL-1 antibody: native anti-hCLL-1 monoclonal antibody 1075.7 (SEQ ID NO: 6 and SEQ ID NO: 8) (protein)
light: B1 light
heavy: DIQLQESGPGLVKPSQSLSLTCSVTGYSITSAYYWNWIRQFPGNKLEWMGYISYDGRNNYNPSLKNRISITRDTSKNQFFLKLNSVTTEDTATYYCAKEGDYDVGNYYAMDYWGQGTSVTVSS[about 350 residues with a human IgG1 Fc skipped]
- catalytic activity: no enzymatic activity

Reference: patent US11684676B2, “Site-specific antibody-drug conjugates by ADP-ribosyl cyclases” (University of Southern California, priority 2020, dated 2023)
